Measured values reported in PubChem BioAssay AID504333 (National Center for Advancing Translational Sciences (NCATS), 2011).
The campaign covered roughly 360,000 compounds. About 16,000 (4.4%) were called active. The shares of active, inactive and inconclusive entries below differ from those in the screen. Calls follow the shape of the dose curve; as a rule, active = well fitted inhibition curve with a large enough effect; inconclusive = small, poorly fitted or top-dose-only effect; inactive = no such curve, though single readings can be large or run the other way. Potencies beside an inconclusive call are fits to weak or partial responses and may not hold up.

Target: Bromodomain adjacent to zinc finger domain protein 2B (Homo sapiens) (UniProt Q9UIF8)
Assay: qHTS Assay for Inhibitors of BAZ2B; also: nearly all actives have a fitted effect of over 60% in size
Details: AlphaScreen BAZ2B-H3K14Ac peptide displacement; activity change, negative = inhibition: at 114 µM (top of the series)
Method in brief: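 Multi-concentration screen (max 110 uM) measuring displacement of acetylated histone H3 peptide from BAZ2B by AlphaScreen, using 50 nM protein, 50 nM peptide and 10 ug/mL streptavidin donor plus Ni-chelate acceptor beads.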
% is scaled to controls: 0 for no effect and ±100 for the full control effect; potency is read from the fitted curve at half-maximal effect; tags tell the direction and shape of the fitted curve.

UniProt Q9UIF8, sequence (Q9UIF8 whole entry, looked up, the tested form may be a part): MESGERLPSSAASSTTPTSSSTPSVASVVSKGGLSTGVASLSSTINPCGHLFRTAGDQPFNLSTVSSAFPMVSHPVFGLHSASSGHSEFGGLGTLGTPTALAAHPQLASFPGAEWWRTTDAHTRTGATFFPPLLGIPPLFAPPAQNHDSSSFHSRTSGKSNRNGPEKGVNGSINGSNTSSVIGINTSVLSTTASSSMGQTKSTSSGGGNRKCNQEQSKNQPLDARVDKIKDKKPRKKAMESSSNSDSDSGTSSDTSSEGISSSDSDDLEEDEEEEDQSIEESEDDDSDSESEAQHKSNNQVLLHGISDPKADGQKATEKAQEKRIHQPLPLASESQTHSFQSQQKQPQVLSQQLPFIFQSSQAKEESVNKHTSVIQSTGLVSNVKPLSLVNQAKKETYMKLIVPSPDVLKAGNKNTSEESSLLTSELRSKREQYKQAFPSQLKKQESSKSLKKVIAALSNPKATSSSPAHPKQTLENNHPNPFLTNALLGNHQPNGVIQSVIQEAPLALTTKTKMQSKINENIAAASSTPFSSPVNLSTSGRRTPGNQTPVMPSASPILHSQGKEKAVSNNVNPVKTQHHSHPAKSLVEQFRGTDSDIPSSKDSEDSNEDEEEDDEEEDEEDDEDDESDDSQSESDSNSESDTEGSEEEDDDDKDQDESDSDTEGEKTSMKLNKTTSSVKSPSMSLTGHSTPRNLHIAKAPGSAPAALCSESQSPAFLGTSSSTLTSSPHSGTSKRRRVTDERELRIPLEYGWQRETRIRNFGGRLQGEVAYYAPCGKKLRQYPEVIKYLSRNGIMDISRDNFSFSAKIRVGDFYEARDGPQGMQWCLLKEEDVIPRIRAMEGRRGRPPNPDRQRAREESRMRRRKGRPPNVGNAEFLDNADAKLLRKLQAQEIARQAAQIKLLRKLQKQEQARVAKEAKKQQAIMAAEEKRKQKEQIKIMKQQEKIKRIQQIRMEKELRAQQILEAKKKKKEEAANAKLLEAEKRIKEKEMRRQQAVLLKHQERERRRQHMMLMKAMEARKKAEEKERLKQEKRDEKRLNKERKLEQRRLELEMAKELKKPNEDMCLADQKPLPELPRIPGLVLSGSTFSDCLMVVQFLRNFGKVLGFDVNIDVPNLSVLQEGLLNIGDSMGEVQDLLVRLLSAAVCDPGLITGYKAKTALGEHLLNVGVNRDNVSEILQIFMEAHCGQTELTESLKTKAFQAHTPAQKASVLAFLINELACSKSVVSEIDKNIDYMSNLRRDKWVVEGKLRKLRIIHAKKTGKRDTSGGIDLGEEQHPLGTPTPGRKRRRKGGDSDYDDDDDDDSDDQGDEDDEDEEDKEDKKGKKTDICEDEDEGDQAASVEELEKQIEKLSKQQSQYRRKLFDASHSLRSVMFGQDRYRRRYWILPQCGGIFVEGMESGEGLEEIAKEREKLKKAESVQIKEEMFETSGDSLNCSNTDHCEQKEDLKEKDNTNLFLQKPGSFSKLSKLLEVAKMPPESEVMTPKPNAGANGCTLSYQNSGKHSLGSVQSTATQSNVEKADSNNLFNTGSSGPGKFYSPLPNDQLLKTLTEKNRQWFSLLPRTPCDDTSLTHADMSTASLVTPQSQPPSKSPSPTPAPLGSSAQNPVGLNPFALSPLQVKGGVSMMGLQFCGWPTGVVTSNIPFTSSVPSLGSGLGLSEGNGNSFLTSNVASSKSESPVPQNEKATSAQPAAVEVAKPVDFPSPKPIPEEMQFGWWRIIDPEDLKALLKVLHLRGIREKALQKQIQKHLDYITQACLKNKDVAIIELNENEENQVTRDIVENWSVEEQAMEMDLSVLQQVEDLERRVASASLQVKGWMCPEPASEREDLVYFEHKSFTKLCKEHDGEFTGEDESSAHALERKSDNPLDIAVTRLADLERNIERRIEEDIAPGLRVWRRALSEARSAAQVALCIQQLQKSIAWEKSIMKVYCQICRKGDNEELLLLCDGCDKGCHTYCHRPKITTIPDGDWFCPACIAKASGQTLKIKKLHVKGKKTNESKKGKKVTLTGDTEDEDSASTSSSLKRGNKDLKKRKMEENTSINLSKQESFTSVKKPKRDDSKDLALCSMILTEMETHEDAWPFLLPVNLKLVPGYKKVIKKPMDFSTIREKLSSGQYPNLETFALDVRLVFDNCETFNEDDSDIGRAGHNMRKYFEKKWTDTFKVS

Row | Compound | activity change, negative = inhibition | Potency
1 | CCc1cccc(C)c1Nc1c(-c2cccs2)nc2nc(C)cc(C)n12 | inactive: -11.9% | –
2 | COCCn1c(C)cc(C(=O)CSc2nc3nc(C)cc(C)n3n2)c1C | inactive: -10.3% | –
3 | Cc1nn2c(=O)cc(COc3ccc(/C=C(\C#N)C(=O)Nc4ccccc4)cc3Cl)nc2s1 | – | inconclusive: 63.1 µM [inhibitor, partial curve, poor fit]
4 | COc1ccc(C(=O)N2CCN(C)C(=O)[C@@H]2C)cc1OC1CCN(C(C)=O)CC1 | inactive: -3.83% | –
5 | Cc1sc2nc(CN3CCOCC3)nc(NCCc3ccccc3)c2c1C | inactive: -33% | –
6 | COc1ccc(/C=C2\SC(=S)N(CCCC(=O)N3CCCCC3CCO)C2=O)cc1 (centres undefined) | – | active: 7.94 µM
7 | CCc1ccc(N2CC(C(=O)N/N=C/c3cccc([N+](=O)[O-])c3)CC2=O)cc1 (centres undefined) | – | inconclusive: 89.1 µM [inhibitor, single point]
8 | C=C1C(C(=O)Nc2cccc(OC)c2)C1C(=O)Nc1cccc(OC)c1 (centres undefined) | – | inconclusive: 56.2 µM [inhibitor, single point]
9 | Cc1ccccc1NC1=NC(=S)N(c2ccccc2)C12CCCCC2 | – | inconclusive: 70.8 µM [inhibitor, single point]
10 | CC1(C)CC(=O)C(Sc2ccccc2[N+](=O)[O-])=C(O)C1 | – | inconclusive: 50.1 µM [inhibitor, partial curve]
11 | CN1CCN(c2ccc([N+](=O)[O-])cc2NC(=O)c2ccccc2Cl)CC1 | – | inconclusive: 89.1 µM [inhibitor, single point]
12 | Cc1ccc(Cl)c2c1=NC(=O)C=2c1[nH]c(=S)[nH]c1O | – | inconclusive: 89.1 µM [inhibitor, single point]
13 | Cc1ccc(NCc2ccccc2O)cc1C | – | inconclusive: 28.2 µM [inhibitor, partial curve]
14 | CCOC(=O)N1CCN(c2c(N3CCC(N4CCCCC4)CC3)c(=O)c2=O)CC1 | – | inconclusive: 3.55 µM [inhibitor, single point]
15 | NC(=O)CC(NC(=O)Cc1cccc2ccccc12)c1ccc(N2CCC(Cc3ccccc3)CC2)c([N+](=O)[O-])c1 (centres undefined) | – | inconclusive: 8.91 µM [inhibitor, full curve, poor fit]
16 | COc1cccc2c1C(=O)c1c(O)c3c(c(O)c1C2=O)C[C@@](O)(C(C)=O)C[C@@H]3O[C@H]1C[C@H](N)[C@H](O)[C@H](C)O1 | – | active: 35.5 µM
17 | Cn1c2ccccc2c2c(C(=O)NCc3ccco3)cn(C3CCCCC3)c(=O)c21 | – | inconclusive: 89.1 µM [inhibitor, single point]
18 | O=C(O)CCCCCNc1nc2ncn(Cc3ccccc3)c2c(=O)[nH]1 | – | inconclusive: 89.1 µM [inhibitor, single point]
19 | Cc1ccc(C(=O)CC(C(=O)O)n2cncn2)cc1 (centres undefined) | inactive: -0.0321% | –
20 | CCC(=O)Nc1ccc(/C=C(\C(C)=O)C(=O)c2ccccc2)cc1 | inactive: -12.1% | –
21 | O=C(O)c1ccc(-c2ccc(/C=C3\NC(=O)N(Cc4ccc(Cl)cc4)C3=O)o2)cc1 | – | inconclusive: 89.1 µM [inhibitor, single point]
22 | O=C1N=c2ccc(Br)cc2=C1c1sc(=O)[nH]c1O | – | inconclusive: 50.1 µM [inhibitor, partial curve]

Row | Compound | activity change, negative = inhibition | Potency
23 | Cc1ccc(N=C2C(=O)Nc3ccccc32)c(C)c1 | – | inconclusive: 70.8 µM [inhibitor, single point]
24 | COc1ccc(OC)c([N+](=O)[O-])c1C(N)=O | – | active: 50.1 µM
25 | Cc1cccc(NC(=O)CCc2c(C)nn(-c3ccc(N4CCOCC4)nn3)c2C)c1 | inactive: -16.4% [at 57.1 µM] | –
26 | O=C(NCc1ccco1)c1nn2c(C(F)(F)F)cc(-c3cccs3)nc2c1Br | – | inconclusive: 28.2 µM [inhibitor, full curve, poor fit]
27 | CCC(=O)N1CC2(CC(c3cccc(NC(=O)CC(c4ccccc4)c4ccccc4)c3)=NO2)C[C@H]1C(N)=O (some centres undefined) | – | inconclusive: 89.1 µM [inhibitor, single point]
28 | CC(NS(=O)(=O)c1ccccc1)C1COc2ccccc2O1 (centres undefined) | inactive: -3.27% | –
29 | Cc1ccc2nc(SCC(=O)c3ccc4c(c3)NC(=O)CO4)[nH]c2c1 | inactive: -2.57% | –
30 | O=C(N/N=C\c1c(F)c(F)c(F)c(F)c1F)c1ccc(-c2ccccc2)cc1 | inactive: -13% | –
31 | CCn1c(=O)cc(OCC(=O)N2CCN(c3cccc(Cl)c3)CC2)c2ccccc21 | – | inconclusive: 11.2 µM [inhibitor, full curve]
32 | CS(=O)(=O)c1ccccc1-c1nnc(NC(=O)Cc2ccccc2)o1 | – | active: 25.1 µM
33 | COc1ccc(-c2nc(N)n[nH]2)cc1OC | – | inconclusive: 100 µM [inhibitor, single point]
34 | COc1ccccc1-c1cc(C(=O)Nc2sc3c(c2C#N)CCC(C)C3)c2ccccc2n1 (centres undefined) | inactive: -4.84% | –
35 | O=S(=O)(NCC(c1ccccc1)N1CCc2ccccc21)c1ccccc1 (centres undefined) | – | inconclusive: 22.4 µM [inhibitor, full curve]
36 | CCC(Oc1ccc2c(c1)C(=O)CC(C)(C)O2)C(=O)NCCN1CCCCCC1 (centres undefined) | – | inconclusive: 89.1 µM [inhibitor, single point]
37 | CN(CCOc1ccc(Cl)c(Cl)c1)Cc1ccccc1 | – | inconclusive: 89.1 µM [inhibitor, single point]
38 | CCOC(=O)c1sc2ncnc(N3CCN(c4ccc(OC)cc4)CC3)c2c1C | – | inconclusive: 89.1 µM [inhibitor, single point]
39 | CCOc1ccc(C2/C(=C(\O)c3ccc4c(c3)OCCO4)C(=O)C(=O)N2Cc2cccnc2)cc1OCC (centres undefined) | – | active: 50.1 µM
40 | O=C(NCCc1ccccn1)c1cncc(Br)c1 | inactive: 2.75% | –
41 | COc1ccc(NC(=O)Nc2cccc(Cl)c2Cl)c(OC)n1 | – | inconclusive: 79.4 µM [inhibitor, single point]
42 | CN(C)c1ccc(/C=C(\NC(=O)c2ccccc2)C(=O)NCCCn2ccnc2)cc1 | – | active: 28.2 µM
43 | COC(=O)c1cc(=O)c2c(C)nc(C(Cl)(Cl)Cl)nc2[nH]1 | – | inconclusive: 79.4 µM [inhibitor, single point]
44 | O=[N+]([O-])c1cc(S(=O)(=O)O)cc([N+](=O)[O-])c1NN(c1ccccc1)c1ccccc1 | inactive: -36.7% | –
